The record followed here is patent US20230279351A1, “ARTIFICIAL ANTIGEN-SPECIFIC IMMUNOREGULATORY T (AIRT) CELLS” (Seattle Children's Hospital (dba Seattle Children's …, priority 2019, published 2023).

For this experiment, the system named is murine CD4+ T cells transduced with lentiviral CISC. Put plainly: Enrichment of lentiviral CISC (#1272) transduced murine CD4+ T cells. The note with it: 3 days Rapalog plus additional CD3/CD28 bead stimulation; initial 8.85%. On the procedure: FIG. 92 relates to lentiviral CISC constructs used to transduce murine CD4+ T cells and test selective expansion with Rapalog. Panel A depicts a diagram of lentiviral construct #1272. This construct was developed to assess proof-of-concept for enrichment of murine T cells using human CISC components in the presence of Rapalog. […] Panel B depicts a timeline of experimental procedures. […] Cells were evaluated for mCherry by flow cytometry at days 2 and 5 post-transduction.
Panel A depicts flow plots show mCherry expression 2 days following mock or lentiviral transduction (#1272) of murine CD4+ T cells.
An important feature of a human antigen-specific airT platform is the potential to expand airT in vitro and in vivo using, as an example, the IL-2-CISC system. […] Enrichment was greatest (46.1%) when transduced T cells that were concurrently treated with both Rapalog and an additional CD3/CD28 bead stimulation.

SMILES strings stand for the structures.

Turning to `CO[C@H]1[C@@H](O)[C@H](C)C[C@H](C)/C=C/C=C/C=C(\C)[C@@H](c2c[nH]c3c(C)cccc23)C[C@@H]2CC[C@@H](C)[C@@](O)(O2)C(=O)C(=O)N2CCCC[C@H]2C(=O)O[C@H]([C@H](C)C[C@@H]2CC[C@@H](O)[C@H](OC)C2)C[C@H](O)[C@H](C)/C=C(\C)[C@H]1O` [Rapalog], the “mCherry-positive cells (enrichment)” value came to 46.1%.
